# According to PubChem BioAssay (Tox21):
# Inconclusive means that the source gave no clear call. Such entries were picked first, then a sample of the others. Entries that show only a call come without a potency. For some assays here: Where the call is inconclusive, the potency comes from a doubtful curve fit. Activity calls are given as the source filed them. Unless noted, calls come from the whole dose curve; as a rule, active = well fitted curve in the direction sought with a large enough effect in the repeat runs; inconclusive = weak or mixed curves; inactive = no such curve, though single readings can be large; an effect the other way counts as inactive or inconclusive.
# Legend:
# [1] = qHTS assay to identify small molecule agonists of the constitutive androstane receptor (CAR) signaling pathway - cell viability counter screen (AID 1224836); note: nearly all actives have a fitted effect of over 45% in size; note: potency is the fitted concentration of half-maximal effect
# Summary of the method: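 Using CellTiter-Fluor, viability of HepG2 cells harbouring hCAR and CYP2B6-2.2kb was measured following 23 h incubation with a 15-concentration compound series plus PK11195 (0.75 uM final).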
# [2] = qHTS RealTime-Glo MT Cell Viability Assay in HepG2 cells - 24 hour (AID 1224867); note: potency is the fitted concentration of half-maximal effect; nearly all actives have a fitted effect of over 50% in size
# Summary of the method: (§1)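 qHTS, HepG2, 600 cells/well, RealTime-Glo (NanoLuc + prosubstrate) added with cells; 5 h preincubation; DMSO compound addition; 37 C; luminescence at 0/8/16/24/32/40 h.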
# [3] = qHTS RealTime-Glo MT Cell Viability Assay in HepG2 cells - 8 hour (AID 1224873); note: nearly all actives have a fitted effect of over 55% in size; note: potency is the fitted concentration of half-maximal effect
# Summary of the method: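 HepG2 cells (600/well) mixed with RealTime-Glo MT reagent, settled 5 h at 37 C/5% CO2 before compound addition. Nonlytic NanoLuc luminescence from viable-cell prosubstrate reduction read repeatedly during 40 h treatment at 37 C.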
# [4] = qHTS RealTime-Glo MT Cell Viability Assay in HepG2 cells - 32 hour (AID 1224877); note: nearly all actives have a fitted effect of over 55% in size; note: potency is the fitted concentration of half-maximal effect
# Summary of the method: as §1
# [5] = Caspase-3/7 induction in CHO-K1 cells by small molecules, qHTS assay (AID 1346980); note: potency is the fitted concentration of half-maximal effect; nearly all actives have a fitted effect of over 15% in size
# Summary of the method: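 Wild-type CHO-K1 cells exposed to compounds for 17hr at 37 C, 5% CO2. Caspase-3/7 activity then measured by Caspase-Glo 3/7 luminescence after 30min at room temperature.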
# [6] = molecular target: Androgen receptor (Homo sapiens) (UniProt P10275); assay: qHTS assay to identify small molecule antagonists of the androgen receptor (AR) signaling pathway using the MDA cell line in the presence of 0.5 nM R1881 (AID 1259243); note: nearly all actives have a fitted effect of over 50% in size
# Sequence of UniProt P10275 (P10275 whole entry, looked up): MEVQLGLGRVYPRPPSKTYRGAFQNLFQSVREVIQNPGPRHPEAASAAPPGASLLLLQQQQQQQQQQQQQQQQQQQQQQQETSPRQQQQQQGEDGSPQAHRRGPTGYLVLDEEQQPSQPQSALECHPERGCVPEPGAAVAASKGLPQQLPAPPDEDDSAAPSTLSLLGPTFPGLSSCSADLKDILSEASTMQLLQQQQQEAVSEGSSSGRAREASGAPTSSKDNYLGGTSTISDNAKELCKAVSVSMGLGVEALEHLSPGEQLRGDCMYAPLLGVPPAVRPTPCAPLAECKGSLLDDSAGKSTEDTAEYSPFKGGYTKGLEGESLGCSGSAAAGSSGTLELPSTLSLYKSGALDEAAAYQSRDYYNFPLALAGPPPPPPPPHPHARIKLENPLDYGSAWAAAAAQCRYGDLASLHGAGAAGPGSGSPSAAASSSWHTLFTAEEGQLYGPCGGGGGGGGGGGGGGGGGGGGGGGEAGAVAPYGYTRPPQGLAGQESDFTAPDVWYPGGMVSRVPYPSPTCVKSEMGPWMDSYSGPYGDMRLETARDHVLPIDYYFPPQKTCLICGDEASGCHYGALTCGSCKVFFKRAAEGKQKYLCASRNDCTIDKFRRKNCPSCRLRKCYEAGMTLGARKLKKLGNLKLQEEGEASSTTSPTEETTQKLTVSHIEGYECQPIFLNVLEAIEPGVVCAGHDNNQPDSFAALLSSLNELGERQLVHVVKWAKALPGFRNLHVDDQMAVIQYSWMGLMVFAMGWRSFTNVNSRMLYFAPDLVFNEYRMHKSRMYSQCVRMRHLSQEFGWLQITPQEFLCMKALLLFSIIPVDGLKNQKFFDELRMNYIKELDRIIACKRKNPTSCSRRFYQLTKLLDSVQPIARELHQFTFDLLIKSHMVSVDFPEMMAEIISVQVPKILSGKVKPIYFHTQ
# Summary of the method: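 Luminescence from an AR/GR-responsive MMTV-luciferase construct in MDA-kb2 breast carcinoma cells, read 30 min after ONE-Glo, following 16 hr co-treatment with compounds and 0.5 nM R1881.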
# [7] = qHTS assay to identify small molecule antagonists of the estrogen receptor alpha (ER-alpha) signaling pathway using the BG1 cell line in the presence of 0.1 nM 17-beta-estradiol - cell viability counter screen (AID 1259241); note: nearly all actives have a fitted effect of over 40% in size; note: potency is the fitted concentration of half-maximal effect
# Summary of the method: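 Estradiol-stimulated (0.1 nM) VM7Luc4E2 cells exposed to compounds 22 hr; viability measured by fluorescence of cleaved CellTiter-Fluor substrate after 30 min.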
# [8] = qHTS assay to identify small molecule antagonists of the androgen receptor (AR) signaling pathway using the MDA cell line in the presence of 0.5 nM R1881 - cell viability counter screen (AID 1259242); note: nearly all actives have a fitted effect of over 45% in size; note: potency is the fitted concentration of half-maximal effect
# Summary of the method: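 Cells seeded at 3,000/well and allowed 5 hr at 37C, 0% CO2 before compound transfer and R1881 (0.5 nM final) addition; 16 hr later, live-cell protease fluorescence indicated cytotoxicity.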
# [9] = molecular target: Androgen receptor (Homo sapiens) (UniProt P10275); assay: qHTS assay to identify small molecule agonists of the androgen receptor (AR) signaling pathway (AID 743036; active = well fitted activation curve with a large enough effect in the signal ratio in the repeat runs, with a control signal flat, not every such curve was filed as active; inconclusive = weak or mixed curves, or effect the other way; inactive = no such curve, though single readings can be large or run the other way; the % refers to the signal ratio; note: potency is the fitted concentration of half-maximal effect); details: HEK293 AR-UAS-bla GripTite, beta-lactamase FRET ratio, 16 h; activation: at 62.4 µM (top of the series) unless noted
# Summary of the method: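 Cell-based FRET reporter assay: HEK293 line with a UAS-beta-lactamase construct, compounds added in DMSO, 16 h exposure at 37C, then 2 h substrate step at room temperature and fluorescence intensity read.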
# [10] = A CellTox Green Cytotoxicity Assay to monitor cytotoxicity in HEK293 cells - 16 hour (AID 1224888); note: nearly all actives have a fitted effect of over 35% in size; note: potency is the fitted concentration of half-maximal effect
# Summary of the method: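 Real-time, in one plate: 600 HEK293 cells/well with dead-cell DNA dye, pinned compound after 5 h, 37 C incubation over 40 h; viable cells give no appreciable fluorescence.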
# [11] = molecular target: Glucocorticoid receptor (Homo sapiens) (UniProt P04150); assay: qHTS assay to identify small molecule agonists of the glucocorticoid receptor (GR) signaling pathway (AID 720691; active = well fitted activation curve with a large enough effect in the signal ratio in the repeat runs, not every such curve was filed as active; inconclusive = weak or mixed curves, or effect the other way; inactive = no such curve, though single readings can be large or run the other way; the % refers to the signal ratio); details: GR-bla HeLa, beta-lactamase reporter ratio, 18 h; activation: at 62.4 µM (top of the series) unless noted
# Sequence of UniProt P04150 (P04150 whole entry, looked up): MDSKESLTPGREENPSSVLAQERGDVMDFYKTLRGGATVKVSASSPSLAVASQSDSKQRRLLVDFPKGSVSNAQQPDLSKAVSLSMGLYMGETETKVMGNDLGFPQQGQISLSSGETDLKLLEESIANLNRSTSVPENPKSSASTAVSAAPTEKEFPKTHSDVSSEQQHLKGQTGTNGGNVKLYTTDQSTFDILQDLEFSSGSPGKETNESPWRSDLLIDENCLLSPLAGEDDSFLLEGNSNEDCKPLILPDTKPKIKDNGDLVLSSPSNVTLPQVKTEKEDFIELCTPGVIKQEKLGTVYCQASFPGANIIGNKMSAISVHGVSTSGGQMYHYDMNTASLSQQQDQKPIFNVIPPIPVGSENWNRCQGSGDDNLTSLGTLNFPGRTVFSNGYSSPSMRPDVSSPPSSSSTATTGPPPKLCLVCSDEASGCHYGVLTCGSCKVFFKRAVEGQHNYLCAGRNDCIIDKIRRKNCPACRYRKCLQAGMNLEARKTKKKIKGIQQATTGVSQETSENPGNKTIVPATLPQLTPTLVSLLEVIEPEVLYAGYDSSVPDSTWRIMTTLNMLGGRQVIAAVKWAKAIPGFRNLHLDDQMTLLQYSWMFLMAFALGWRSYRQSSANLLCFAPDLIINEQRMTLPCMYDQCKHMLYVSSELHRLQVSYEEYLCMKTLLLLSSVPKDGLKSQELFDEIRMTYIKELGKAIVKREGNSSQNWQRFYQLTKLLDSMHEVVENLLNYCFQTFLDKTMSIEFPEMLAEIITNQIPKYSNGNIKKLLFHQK
# Summary of the method: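 Compounds in DMSO, alongside positive controls, were added to GR-bla HeLa reporter cells and incubated 18 h at 37 C; GRE-driven beta-lactamase was detected by fluorescence after 2 h with FRET substrate at room temperature.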
# [12] = qHTS assay to identify small molecule agonists of the estrogen related receptor signaling pathway with the pleiotropic PPARgamma coactivator (PGC) from Tox21 10K library (AID 1224842); note: nearly all actives have a fitted effect of over 15% in size; note: potency is the fitted concentration of half-maximal effect
# Summary of the method: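 PGC/ERR reporter cell line, 2,000 cells per well, incubated 6 h at 37 C before 23 nL compound in DMSO was added. After 18 h at 37 C, One-Glo luminescence read following 30 min at room temperature.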
# [13] = qHTS assay to identify small molecule antagonists of the estrogen related receptor signaling pathway with the pleiotropic PPARgamma coactivator (PGC) from Tox21 10K library - cell viability counter screen (AID 1224840; active = well fitted cell-killing curve with a large enough effect in the repeat runs, not every such curve was filed as active; inconclusive = weak or mixed curves, or effect the other way; inactive = no such curve, though single readings can be large or run the other way; note: nearly all actives have a fitted effect of over 40% in size; note: potency is the fitted concentration of half-maximal effect)
# Summary of the method: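 Readout: fluorescence intensity from CellTiter-Fluor after 30 min at 37 C/5% CO2. Preceded by 17.5 h treatment of PGC/ERR cells with DMSO-dissolved compounds, added 6 h post-seeding.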
# [14] = qHTS assay to identify small molecule phospholipidosis (PLD) inducers (AID 1259344; active = well fitted curve in the direction sought with a large enough effect; inconclusive = small, poorly fitted or top-dose-only effect, or another doubt; inactive = no such curve, though single readings can be large; an effect the other way counts as inactive or inconclusive; note: potency is the fitted concentration of half-maximal effect); details: HepG2 phospholipidosis, LipidTOX Red imaging, 24 h; series mostly up to 38.3 µM
# Summary of the method: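 Image-based: LipidTOX Red pit count/intensity per well and per cell; HepG2, 24 h compound at 37 C, PFA fixation, Hoechst counterstain.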
# [15] = molecular target: Nuclear receptor subfamily 1 group I member 2 (Homo sapiens) (UniProt O75469); assay: CYP3A4 induction through human pregnane X receptor (PXR) by small molecules, qHTS assay (AID 1346984); details: DPX-2 HepG2 PXR, CYP3A4-luciferin luminescence, 24 h; activation: at 46.1 µM (top of the series) unless noted; note: potency is the fitted concentration of half-maximal effect; nearly all actives have a fitted effect of over 40% in size
# Summary of the method: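 Cells (DPX-2; HepG2 with PXR element plus CYP3A4-promoter luciferase) settled 5hr, then were treated 24hr at 37C. A 3hr, 3uM-final Luciferin-IPA step preceded luminescence measurement with One-Glo.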
# [16] = qHTS assay for small molecule activators of the heat shock response signaling pathway - cell viability counter screen (AID 743209); details: HSE-bla HeLa viability, CellTiter-Glo luminescence, 5 h; series mostly up to 62.6 µM; note: nearly all actives have a fitted effect of over 50% in size; note: potency is the fitted concentration of half-maximal effect
# Summary of the method: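 Compounds dissolved in DMSO were added to overnight-plated HSE-bla HeLa cells and left 5 h at 37 C. Cell viability was quantified by luminescence using CellTiter-Glo.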
# [17] = qHTS assay to identify small molecule HDAC inhibitors - cell viability counter screen (AID 1259365); note: potency is the fitted concentration of half-maximal effect; nearly all actives have a fitted effect of over 50% in size
# Summary of the method: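 After overnight seeding at 1,500 cells per well, wild-type HCT-116 cultures took up compounds in DMSO for 2hr at 37 C. Viable cell content came from luminescence with CellTiter-Glo.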
# [18] = qHTS assay to identify small molecule agonists of the hypoxia (HIF-1) signaling pathway (AID 1224846; active = well fitted activation curve with a large enough effect in the signal ratio in the repeat runs, not every such curve was filed as active; inconclusive = weak or mixed curves; the % refers to the signal ratio; note: potency is the fitted concentration of half-maximal effect); details: HRE-bla ME-180 cells, beta-lactamase ratio, 17 h; activation: at 76.8 µM (top of the series) unless noted
# Summary of the method: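 ME-180 HRE-bla reporter cells; compounds in DMSO, 17 h at 37C; read-out beta-lactamase via CCF4-AM FRET.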
# Tags give direction and shape of the fitted curve or compound fluorescence and quenching.
smiles,measurement,setting,value
O=C(CCCCCCC(=O)Nc1ccccc1)NO,Potency,[1],"inconclusive: 2.98 µM [cytotoxic, full curve]"
same,Potency,[2],"inconclusive: 4.77 µM [falling, full curve]"
same,Potency,[3],"inconclusive: 19 µM [falling, partial curve, poor fit]"
same,Potency,[4],"inconclusive: 5.35 µM [cytotoxic, full curve]"
same,Potency,[5],"inconclusive: 15 µM [activator, partial curve]"
C=C1CC[C@H]2O[C@]2(C)CC[C@@H]2[C@@H]1CC2(C)C,Potency,[6],inactive
N=C(N=C(N)N)N1CCOCC1,Potency,[4],inactive
O=C(O)/C=C/c1ccc(Cn2ccnc2)cc1,Potency,[7],inactive
CC(=O)OC/C=C/c1ccccc1,Potency,[8],inactive
COC(=O)CSc1cc(N=c2sc(=O)n3n2CCCC3)c(F)cc1Cl,Potency,[9],"inconclusive: 6.92 µM [rising, full curve, poor fit]"
same,Potency,[10],"inconclusive: 6.92 µM [activator, partial curve, poor fit]"
same,Potency,[6],inactive
CC(=O)N[C@@H](CCC(N)=O)C(=O)O,Potency,[11],inactive
COc1ccc2c(c1)c(CC(=O)OCC(=O)O)c(C)n2C(=O)c1ccc(Cl)cc1,Potency,[6],inactive
CCCOC(=O)CC,Potency,[1],inactive
O=[N+]([O-])c1cc([N+](=O)[O-])c2ccc(S(=O)(=O)O)cc2c1O,Potency,[7],active: 27.1 µM
same,Potency,[8],"inconclusive: 27.1 µM [cytotoxic, partial curve]"
CC(=O)OC1CC(C)OC(C)O1 (stereo unspecified),Potency,[12],inactive
same,Potency,[3],inactive
COc1ccc2c(c1)CCCC2=O,Potency,[8],inactive
C[C@H]1COc2c(C3(N)CC3)c(F)cc3c(=O)c(C(=O)O)cn1c23,Potency,[13],inactive
same,Potency,[14],inactive
CC(=O)OC1CCCCC1C(C)(C)C (stereo unspecified),Potency,[9],"inconclusive: 54.9 µM [rising, partial curve, poor fit]"
CC(C(O)c1ccc(O)cc1)N1CCC(Cc2ccccc2)CC1 (stereo unspecified),Potency,[14],"inconclusive: 28.2 µM [activator, single point]"
same,Potency,[15],"inconclusive: 25.1 µM [activator, partial curve, poor fit]"
C=C1[C@H]2CC[C@@H]3[C@H]2C(C)(C)CCC[C@]13C,Potency,[10],inactive
COC[C@H](c1ccc(C(F)(F)F)cc1)N1CCN(C2(C)CCN(C(=O)c3c(C)ncnc3C)CC2)C[C@H]1C,Potency,[14],"inconclusive: 28.2 µM [activator, single point]"
CSc1nc(NC2CC2)nc(NC(C)(C)C)n1,Potency,[13],"inconclusive: 61.1 µM [cytotoxic, partial curve, poor fit]"
COc1ccc(CCC(C)=O)cc1,Potency,[16],inactive
CCN(CCC#N)c1ccc(N=Nc2ccc([N+](=O)[O-])cc2)cc1,Potency,[12],"inconclusive: 2.17 µM [activator, partial curve]"
same,Potency,[17],"inconclusive: 34.4 µM [cytotoxic, partial curve]"
Cc1ccc2n[nH]nc2c1,Potency,[18],"inconclusive: 27.5 µM [falling, partial curve]"
Nc1ccn([C@@H]2O[C@H](CO)[C@@H](O)C2(F)F)c(=O)n1,Potency,[7],inactive
CC(C)(Oc1ccc(CCNC(=O)c2ccc(Cl)cc2)cc1)C(=O)O,Potency,[3],inactive
CCC(C(=O)OCCOCCN(CC)CC)c1ccccc1 (stereo unspecified),Potency,[3],inactive
c1ccc(B(c2ccccc2)c2ccccc2)cc1,Potency,[10],inactive
O=C(O)CONC(=O)c1ccccc1,Potency,[16],inactive
CC#N,Potency,[3],inactive
O=C(O)c1cc(C(=O)O)cc(C(=O)O)c1,Potency,[4],inactive
C=CC(C)CCCC(C)(C)O (stereo unspecified),Potency,[4],inactive
O=C(O)Cc1ccc(CCNS(=O)(=O)c2ccc(Cl)cc2)cc1,Potency,[16],"inconclusive: 0.668 µM [cytotoxic, single point]"
